The whole screen tested about 150,000 compounds, of which about 540 (0.36%) showed an effect of 50% or more. This is one part of the list.

For this assay, the system named is Plasmodium falciparum. The assay can be described thus: Primary screen in NF54 nanoGlo assay, in single point, at 2uM, 72h; a lower Z score goes with more inhibition. The class given is functional, Erythrocyte. The note with it: timepoint 72 hour.
As a reminder, the % Inhibition is the drop in the measured response relative to a control, in per cent. Regarding `CC(C)N1C[C@H](Oc2ccccc2)[C@@H]1C1CCN(C(=O)COCc2ccccc2)CC1`, the “% Inhibition” value was -2% and the Z score came out at 0.2.

On to `COCc1ccc(C(=O)N[C@H]2CCCOC2)s1`, for which the “% Inhibition” value came to 3% and the Z score was -0.47.

As to `CCc1cc(NC(=O)NCC(F)(F)F)[nH]n1`, the “% Inhibition” value is on record as -9% and the Z score is recorded as 1.32.

In the case of `O=C(Cn1cncc(-c2ccccc2)c1=O)NCc1ccccc1`, the “% Inhibition” value was -2% and the Z score is reported as 0.16.

For the molecule `C1CCC(NC(=Nc2nonc2N=C(NC2CCCCC2)NC2CCCCC2)NC2CCCCC2)CC1`, the “% Inhibition” value is on record as 25% and the Z score was -2.88.

Take `C=CCN1CCC(NC(=O)N(Cc2ccccc2F)C2CCC2)CC1`: the “% Inhibition” value is recorded as -2% and the Z score amounted to 0.22.

As to `N#Cc1cccc(C(=O)N2CCNC(=O)[C@@H]2c2c(F)cccc2Cl)c1`, the “% Inhibition” value is given as -8% and the Z score was found to be 0.79.

Take `COCCN1CC2(CCN(C(=O)c3ccoc3)CC2)[C@H]1c1ccncc1`: the “% Inhibition” value is given as -14% and the Z score came out at 2.33.

For the molecule `CCCCn1c(N)c(N(C(=O)COc2ccc(C)cc2Br)C2CCCC2)c(=O)[nH]c1=O`, the “% Inhibition” value is -11% and the Z score was found to be 1.23.

As for `O=C(Cc1ccc(Cl)cc1)Nc1cnc(-n2ccnc2)nc1`, the “% Inhibition” value is reported as 4% and the Z score was -0.61.

Take `Cc1nnc(-c2ccccc2-c2ccnc3c2ccn3C)o1`: the “% Inhibition” value is given as -18% and the Z score is on record as 2.82.

With `COC(=O)[C@@H]1CCCN1C(=O)OC(C)(C)C`, the “% Inhibition” value was -6% and the Z score was found to be 0.94.

In the case of `CCNC(=O)CNc1ncc(C)c(C)n1`, the “% Inhibition” value was determined as 29% and the Z score is recorded as -3.87.

As to `Cc1cc(OCC(=O)NCc2ccccc2F)nnc1C`, the “% Inhibition” value was determined as 0% and the Z score came to 0.01.

Turning to `CCc1c(C)nc(C)nc1N1CC[C@H](NC(=O)c2cc(C)on2)[C@@H](O)C1`, the “% Inhibition” value came to 8% and the Z score is -1.41.

`CCOc1cc(CNC(=O)[C@@H]2Cc3ccccc3N2C(=O)CC)cc(OCC)c1OCC`: the “% Inhibition” value is reported as -4% and the Z score was determined as 0.54.

With `O=C(Nc1nnc2ccccn12)c1ccc2ccccc2n1`, the “% Inhibition” value is -15% and the Z score is recorded as 1.47.

`CC(C)[C@@H]1CN(C(=O)c2c[nH]c(=O)c3ccccc23)CCCO1`: the “% Inhibition” value is on record as -5% and the Z score is listed as 0.52.

With `CN(Cc1cnc(N2CCCC2)s1)C[C@H]1Cc2ccccc2O1`, the “% Inhibition” value is on record as -4% and the Z score stood at 0.84.

In the case of `Cc1cccc(CNCCCc2ccccc2F)n1`, the “% Inhibition” value is reported as -7% and the Z score was found to be 1.2.

With `O=C(Nc1cccnc1)c1cccc(S(=O)(=O)NC[C@@H]2C[C@H](F)CN2)c1`, the “% Inhibition” value is -8% and the Z score worked out at 1.08.

As to `Cn1c(=O)n(C)c2cc(N3CCCC3)c(NC(=O)NCc3ccco3)cc21`, the “% Inhibition” value is -11% and the Z score was found to be 2.18.

Consider `Cc1ccc(S(=O)(=O)Nc2cc(C(=O)O)ccc2N2CCC[C@H](CN3CCCC3)C2)c(C)c1`, for which the “% Inhibition” value is recorded as -6% and the Z score turned out to be 0.6.

Turning to `Cc1ccc(N2CCCC2=O)c(C(=O)N[C@H]2CCCc3c(O)cccc32)c1`, the “% Inhibition” value is reported as 1% and the Z score is -0.12.

`CCc1cc(C(=O)NC[C@](C)(O)CN2CCOCC2)sc1C`: the “% Inhibition” value is -3% and the Z score is 0.47.

As for `Cc1cc(CC(=O)N2CCC(c3c(C)[nH]c4ccccc34)CC2)no1`, the “% Inhibition” value is recorded as -1% and the Z score was 0.14.

As for `O=C1OCC2(CCN(C(=O)NCCc3nc(-c4cccnc4)n[nH]3)CC2)O1`, the “% Inhibition” value is -4% and the Z score was found to be 0.63.

`C[C@H](NC(=O)C1(C(F)(F)F)CCCC1)c1nccc(N)n1`: the “% Inhibition” value was -3% and the Z score was found to be 0.6.

In the case of `COC(=O)c1cccn1C1CCN(C(=O)c2cc(C#N)cn2C)CC1`, the “% Inhibition” value was -7% and the Z score was 1.01.

Take `O=C(C[C@H]1COCCN1C(=O)c1n[nH]c2c1CCC2)c1ccco1`: the “% Inhibition” value is given as -10% and the Z score turned out to be 0.86.

As to `CCCCN(CC(=O)N(Cc1ccco1)C[C@H]1CCCO1)C(=O)CC(C)(C)C`, the “% Inhibition” value is recorded as 0% and the Z score was -0.02.

`O=C(Nc1ccc(NC(=O)c2ccco2)cc1)c1cn(C[C@H](O)c2ccccc2F)nn1`: the “% Inhibition” value is reported as -15% and the Z score is reported as 2.73.

As to `CC(=O)OCCc1c(C)nc2c(C#N)cnn2c1N1CCCC1`, the “% Inhibition” value was found to be 0% and the Z score is reported as -0.04.

As to `O=C1CCCC[C@@H](C(=O)N(CCC(F)(F)F)CC2CC2)N1`, the “% Inhibition” value is -30% and the Z score is reported as 3.57.

Take `C[C@@H](C1CC1)N(C)C(=O)Cn1cc(Br)c(=O)[nH]c1=O`: the “% Inhibition” value is recorded as -3% and the Z score amounted to 0.39.

Take `c1nc(NCCc2ccc3c(c2)OCO3)c2ccsc2n1`: the “% Inhibition” value is on record as -14% and the Z score is reported as 1.14.

Turning to `Cc1cc(C)nc(N2CCN(C(=O)CC[C@H]3CCCN(C)C3)CC2)n1`, the “% Inhibition” value is reported as -8% and the Z score is given as 1.33.

In the case of `COc1cccc(NC(=O)c2nc(N)nc(N(C)C)n2)c1`, the “% Inhibition” value was -20% and the Z score came to 1.86.

Turning to `CC(Nc1ncccc1C#N)C(C)n1cccn1` (centres undefined), the “% Inhibition” value is given as -17% and the Z score amounted to 2.17.

Turning to `CC(C)n1cnc(C(=O)NC[C@H]2CCC[C@@H]2O)c1`, the “% Inhibition” value is on record as -9% and the Z score is given as 1.13.

On to `CC1(C)CC(=O)C2(Cc3ccccc3N3CCC(c4ccccc4)CC32)C(=O)C1` (centres undefined), for which the “% Inhibition” value is -17% and the Z score is 2.46.

Take `CCc1cnc(NC(=O)CC(O)CC(=O)Nc2ncc(CC)s2)s1`: the “% Inhibition” value is recorded as 1% and the Z score is given as -0.13.

Source of the values: ChEMBL document CHEMBL4888484, “Replenishing the malaria drug discovery pipeline: Screening and hit evaluation of the MMV Hit Generation Library 1 (HGL1) against asexual blood stage Plasmodium falciparum ,using a nano luciferase reporter read-out” (2022).
